Experimental data from paper PMC7819943, “Rice protein-binding microarrays: a tool to detect cis-acting elements near promoter regions in rice”.
The other results are listed elsewhere or left out.

biological target: T1, OsWOX13 (Oryza sativa, UniProt Q5QMM3 1-267); assay: protein-binding microarray (RPBM); PBS, 2% BSA, 51.3 ng/ul salmon testes DNA, 50 uM zinc acetate, 200 nM TF, 25 C, 1 h; high values mean tight binding; details: protein: recombinant; tags: N-terminal polyhistidine and DsRed monomer fusion (pET32a); label: CyDye5-dUTP incorporated in the synthesized complementary strand; 3' TTTTT single-stranded linker to array surface; dsDNA, one strand shown
T1 sequence: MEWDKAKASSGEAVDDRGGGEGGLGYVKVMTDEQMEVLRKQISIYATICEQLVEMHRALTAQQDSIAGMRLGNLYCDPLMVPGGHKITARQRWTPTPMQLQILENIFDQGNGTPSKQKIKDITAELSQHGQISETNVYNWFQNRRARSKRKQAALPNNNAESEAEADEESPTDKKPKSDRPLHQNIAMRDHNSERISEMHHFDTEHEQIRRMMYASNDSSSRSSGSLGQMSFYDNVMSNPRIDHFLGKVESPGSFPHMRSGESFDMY
Summary of the method: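 Binding signal is reported as fluorescence intensity per feature (arbitrary units) from an Axon 4000B scanner. Incubation used 200 nM of each Ni–NTA-purified, N-terminally polyhistidine- and DsRed-fused transcription factor from E. coli BL21-CodonPlus on a double-stranded custom Agilent array for 1 h at 25 °C, with 50 µM zinc acetate in the buffer, followed by washing.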

| Sequence | binding signal |
| --- | --- |
| TTCAGTTAATTGTTCGATCGATCGATCGATCAGCTGCTGCCGGAGTCACCTAGTGCAG | 17000 fluorescence intensity (a.u.) |
| TGTATTCATCATCTAAATTATTGTTCATAAACCTATAGGCCGGAGTCACCTAGTGCAG | 3420 fluorescence intensity (a.u.) |
| AAATGAATAATTACTTGGGTTGATGTTGACGAGCATGCCGCGGAGTCACCTAGTGCAG | 6130 fluorescence intensity (a.u.) |
| AAGCCAAATTAAACAACATGATATATCTGTGTATTGCCATCGGAGTCACCTAGTGCAG | 6490 fluorescence intensity (a.u.) |
| ATTGTAATGAAGTATTGATAGGGACTCTAATCAGGCCTCCCGGAGTCACCTAGTGCAG | 11000 fluorescence intensity (a.u.) |
| TGCCCTTACCTGTGGTTTCTCCCGCGGCGGCGGGGTGGAGCGGAGTCACCTAGTGCAG | 65500 fluorescence intensity (a.u.) |
| ACAGAAATTAGATGGAGATAAAGATTTTCGTGACACGTTTCGGAGTCACCTAGTGCAG | 7480 fluorescence intensity (a.u.) |
| CATATACATACTAATTAAACCTAAATACGTAGCCTGATCACGGAGTCACCTAGTGCAG | 8710 fluorescence intensity (a.u.) |
| AAAATAACTGACAGTGACAGTGTCACCTGTTGATTCTGACCGGAGTCACCTAGTGCAG | 25900 fluorescence intensity (a.u.) |
| ATGTAATTTATACAAGTGGGTATTCATTTAAATTGGTTATCGGAGTCACCTAGTGCAG | 25300 fluorescence intensity (a.u.) |
| ACTGATAACAAAATAATTTATAGGTAAAACTTTTAATATGCGGAGTCACCTAGTGCAG | 7340 fluorescence intensity (a.u.) |
| CTCATAGTCATAGTTACTGATTTGTTTGCTCATAGTCATACGGAGTCACCTAGTGCAG | 4510 fluorescence intensity (a.u.) |
| AGAGTGGAATTGGCAATTCCCAAATCGAAACGCCGCTGCGCGGAGTCACCTAGTGCAG | 8410 fluorescence intensity (a.u.) |
| CTAATACTTAATTAATCACGTGTTAAAAGGCCGCTCCATTCGGAGTCACCTAGTGCAG | 18700 fluorescence intensity (a.u.) |
| TCCTTGACGAGAAGGGCACCATCGTGATCAATCATCTGTCCGGAGTCACCTAGTGCAG | 13900 fluorescence intensity (a.u.) |
| ACACCCTCATTACTATATTATTAATTATTGTTCCTCAATGCGGAGTCACCTAGTGCAG | 5020 fluorescence intensity (a.u.) |
| GCAATGGATCATGCTATCCAATCAATTTTCATATGTTCTTCGGAGTCACCTAGTGCAG | 3400 fluorescence intensity (a.u.) |
| CCAAATTTGATTGGCATCTCAAAACTGTCGTATAATTGGGCGGAGTCACCTAGTGCAG | 65500 fluorescence intensity (a.u.) |
| CCTAATTACGCCATGATTTGACAATATGATGCTACAGTAACGGAGTCACCTAGTGCAG | 36900 fluorescence intensity (a.u.) |
| AGCAAGTGATTTGTCCTCCTTACATTGTTAGTACTGTTTGCGGAGTCACCTAGTGCAG | 14000 fluorescence intensity (a.u.) |
| CCACAGATTGTTAGCTTAGCGTTTGGTTACTTGCTTCAGTCGGAGTCACCTAGTGCAG | 4170 fluorescence intensity (a.u.) |

| Sequence | binding signal |
| --- | --- |
| CGGCTGATTGACCGGGTGGGGCGCCGGCGACCGCCACCACCGGAGTCACCTAGTGCAG | 33400 fluorescence intensity (a.u.) |
| AGACTAATTGAAGCTAGGATATATGATGCAAGGAGAGAGGCGGAGTCACCTAGTGCAG | 29500 fluorescence intensity (a.u.) |
| TATATATATATATATATATATAATTCGTTTGTGGTACATACGGAGTCACCTAGTGCAG | 16100 fluorescence intensity (a.u.) |
| TTGATTGATGTCATTTAAATTATCATTGGTCTTGGTGTATCGGAGTCACCTAGTGCAG | 41100 fluorescence intensity (a.u.) |
| TTGATTAGTAGTAGTGGAGTACTTAGTAACCGGCCGGTTTCGGAGTCACCTAGTGCAG | 8000 fluorescence intensity (a.u.) |
| AAAAGCAAACATGATTTGTACTTGTGATTTCGAGTTCTCACGGAGTCACCTAGTGCAG | 4760 fluorescence intensity (a.u.) |
| GTTGAACTTATTCCAATCAAGGATCACGCATTCACGTTCACGGAGTCACCTAGTGCAG | 14100 fluorescence intensity (a.u.) |
| AAGTTAACTTTGATCTGAATTGAATATATACTCAGTGAAGCGGAGTCACCTAGTGCAG | 9560 fluorescence intensity (a.u.) |
| GCCCGTTGCTCATCTCTCTCATCGTTTATCGCATTAAAATCGGAGTCACCTAGTGCAG | 4230 fluorescence intensity (a.u.) |
| ACTTGACAGGTAGCTCGGCCTTCTTTTCTCTCTCTCTCTCCGGAGTCACCTAGTGCAG | 21100 fluorescence intensity (a.u.) |
| GTACCAGCTAGCTAGCCAATCACGATATACAATTATACATCGGAGTCACCTAGTGCAG | 3210 fluorescence intensity (a.u.) |
| CGTGGTCTCTAATTTGTTTTGTTCGTTCTCCTTTCTTGTTCGGAGTCACCTAGTGCAG | 4660 fluorescence intensity (a.u.) |
| CTTACCAAAATTTAAATTTTGGCAGGATTTCTTATATAGTCGGAGTCACCTAGTGCAG | 4040 fluorescence intensity (a.u.) |
| TAAATTCAATTTAAATTTGAATTCAAATTTTATAGACCTACGGAGTCACCTAGTGCAG | 27500 fluorescence intensity (a.u.) |
| TGGCTTAATTTAATCCCCTCCATTCCGGATGCCTCTCCCTCGGAGTCACCTAGTGCAG | 20200 fluorescence intensity (a.u.) |
| ATGAGGAAATTGTTCAATTAAGATGATTCATTATCTTCTACGGAGTCACCTAGTGCAG | 7070 fluorescence intensity (a.u.) |
| AATTAAATTAGGCGAAATGAAAAGAAAGTCCCTGACCGAACGGAGTCACCTAGTGCAG | 6550 fluorescence intensity (a.u.) |
| GGAAATGTTATAATTGACTTACCTTGTGAAACGGAAGGAGCGGAGTCACCTAGTGCAG | 28700 fluorescence intensity (a.u.) |
| TATTGATTGGTTCAGATGGAGACATGTGCAACTTCGTGCTCGGAGTCACCTAGTGCAG | 61700 fluorescence intensity (a.u.) |
| CGCCCGGCGTCCCAATCATTGGGCGCTTTGTTTGCTTGCGCGGAGTCACCTAGTGCAG | 4000 fluorescence intensity (a.u.) |
| AGGCCCAATGATTTGTAAGGTGGGACATGACATAAGTGTGCGGAGTCACCTAGTGCAG | 13800 fluorescence intensity (a.u.) |
